PubChem BioAssay AID1345082 (National Center for Advancing Translational Sciences (NCATS), 2018)
About 4,000 (4.3%) of roughly 94,000 compounds were called active. The shares of active, inactive and inconclusive entries below differ from those in the screen. Calls follow the shape of the dose curve; as a rule, active = well fitted inhibition curve with a large enough effect; inconclusive = small, poorly fitted or top-dose-only effect; inactive = no such curve, though single readings can be large or run the other way. Potencies beside an inconclusive call are fits to weak or partial responses and may not hold up.

Experiment: Cytotoxic Profiling in NIH 3T3 Cell Line of Diverse Libraries Using Quantitative High-Throughput Screening; also: nearly all actives have a fitted effect of over 55% in size
Details: NIH 3T3 viability, CellTiter-Glo ATP luminescence, 48-72 h; series mostly up to 96.7 µM
In short: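 Luminescent ATP readout (CellTiter-Glo, 10 min RT) after 48 or 72 hr compound exposure of NIH 3T3 cells seeded at 400 cells/well in 1536-well format; quantitative HTS.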
Potency is read from the fitted curve at half-maximal effect; tags tell the direction and shape of the fitted curve.

Row | SMILES | Potency
1 | CN(C)c1cccc(-c2cnc(Nc3cccc(N[S+](C)(=O)[O-])c3)c3c2CCO3)c1 | inconclusive: 22.4 µM [inhibitor, full curve, poor fit]
2 | CCC1Oc2ccc(NC(=O)Cc3ccc(F)cc3)cc2CN(Cc2cccc(OC)c2)C1=O (stereo unspecified) | inconclusive: 22.4 µM [inhibitor, full curve]
3 | COCCNC(=O)C1COC2(CCN(C(=O)c3cccs3)CC2)N1C(=O)c1ccccc1 (stereo unspecified) | inconclusive: 79.4 µM [inhibitor, partial curve, poor fit]
4 | O=C(COc1ccccc1)Nc1ccc2c(c1)CN(Cc1ccccc1F)C(=O)CO2 | inconclusive: 44.7 µM [inhibitor, partial curve]
5 | O=C(c1[nH]nc2c1CCc1ccccc1-2)N1CCC(c2noc(-c3cccnc3)n2)C1 (stereo unspecified) | inconclusive: 39.8 µM [inhibitor, partial curve, poor fit]
6 | COc1cccc(C(=O)Nc2ccc3c(c2)CN(Cc2cccc(OC)c2OC)C(=O)CO3)c1 | inactive
7 | COCCCNC(=O)N1CCCCCCNC(=O)[C@@H]2CCCC[C@@H]21 | inactive
8 | COc1cccc(CCC(=O)N2CCC(Oc3ncccc3C(=O)N3CCCCC3)C2)c1 (stereo unspecified) | inactive
9 | O=C1CC2(CCN(C(=O)C3CCCN([S+](=O)([O-])c4cccs4)C3)CC2)Oc2ccccc2N1 (stereo unspecified) | inactive
10 | COc1ccc(Nc2ccnc(N3CCCC(C(=O)N4CCC(c5ccccc5)CC4)C3)n2)cc1 (stereo unspecified) | inconclusive: 20 µM [inhibitor, full curve, poor fit]
11 | Cc1cc2ncc(C(=O)NCc3cccc(Cl)c3)cn2n1 | inconclusive: 31.6 µM [inhibitor, partial curve, poor fit]
12 | COc1ccc(Cn2c(C3CCN(C(=O)c4cccc(Cl)c4)CC3)n[nH]c2=O)cc1 | inconclusive: 15.8 µM [inhibitor, partial curve, poor fit]
13 | COc1ccc(CCc2nc3nccc(-c4ccsc4)n3n2)cc1OC | inconclusive: 39.8 µM [inhibitor, partial curve]
14 | Cc1nc(-c2ccc(Cl)cc2)n(Cc2cccc(C(F)(F)F)c2)c(=O)c1CCO | inconclusive: 44.7 µM [inhibitor, partial curve, poor fit]
15 | Cc1nn2c(c1-c1ccccc1Oc1ccccc1)N(C(=O)C(C)C)CCC2 | inconclusive: 89.1 µM [inhibitor, partial curve, poor fit]
16 | CN(C)C(=O)C1CCCN(c2nccc(Nc3ccccc3F)n2)C1 (stereo unspecified) | inconclusive: 89.1 µM [inhibitor, partial curve]
17 | CN1c2cc(C(=O)Nc3ccc4c(c3)CCC4)ccc2C(=O)N2CCCCCC21 (stereo unspecified) | inconclusive: 44.7 µM [inhibitor, partial curve, poor fit]
18 | COc1ccc(-c2noc(-c3cccn3CC(=O)Nc3ccc(F)c(F)c3)n2)cc1F | inconclusive: 44.7 µM [inhibitor, partial curve]
19 | COc1cccc(CC(=O)N2CC(COc3ccccc3)C3(C2)CN(c2ccccc2)C3)c1 (stereo unspecified) | inconclusive: 31.6 µM [inhibitor, full curve]
20 | CCC(C)(C)C(=O)N1CCC2(CC1)CC(N(Cc1ccc(F)cc1)C1CC1)CCO2 (stereo unspecified) | inconclusive: 50.1 µM [inhibitor, partial curve, poor fit]
21 | COc1cccc(CN2Cc3cc(NC(=O)c4ccc(F)cc4F)ccc3OC(C)C2=O)c1 (stereo unspecified) | inconclusive: 50.1 µM [inhibitor, partial curve, poor fit]

Row | SMILES | Potency
22 | O=C(NC[C@H]1O[C@@H](CO)[C@@H](O)[C@H]1N1CCOCC1)c1ccc(F)c(Cl)c1 | inactive
23 | CCOC(=O)C1CCN(C(=O)c2ccc3nnc(-c4ccccc4OC)n3c2)CC1 | inactive
24 | Cc1nccn1CC(=O)NCC1CCN(c2cc(-c3ccc(Cl)cc3)[nH]n2)CC1 | inconclusive: 44.7 µM [inhibitor, partial curve, poor fit]
25 | CCN1CCC(N2CCC(Oc3ccccc3-c3nc(-c4ccncc4)no3)C2)CC1 (stereo unspecified) | active: 6.31 µM
26 | Cc1cc(C)cc(-c2ccc(CN3CCCC(NC(=O)c4ccc(C(F)(F)F)cc4)C3)cc2)c1 (stereo unspecified) | inactive
27 | COCCOC1CN(C2CCN(C(=O)c3ccc4cc[nH]c4c3)CC2)C12CCCCC2 (stereo unspecified) | inconclusive: 50.1 µM [inhibitor, partial curve, poor fit]
28 | CC(C)c1noc(-c2cn(C3CCN(C(=O)c4cccc(C(F)(F)F)c4)C3)nn2)n1 (stereo unspecified) | inconclusive: 44.7 µM [inhibitor, partial curve, poor fit]
29 | CCn1nc(C)c(-c2cc(C(=O)N3CCC(CCOc4ccccc4)C3)no2)c1C (stereo unspecified) | inconclusive: 50.1 µM [inhibitor, partial curve, poor fit]
30 | C[C@@]1(O)CCN(CC2CCCCC2)C[C@H]1N1CCCC1 | inconclusive: 50.1 µM [inhibitor, partial curve, poor fit]
31 | Cc1cc(=O)n(CC(=O)Nc2ccc(C)c(Cl)c2)c(N2CCC(C)CC2)n1 | inconclusive: 39.8 µM [inhibitor, partial curve, poor fit]
32 | CC(C)(O)C#Cc1ccc(CN2CCC(CO)(CCCc3ccccc3)CC2)s1 | inconclusive: 50.1 µM [inhibitor, partial curve, poor fit]
33 | COc1ccc(CN2CCC(CO)(CN3CCCC3)CC2)cc1C | inconclusive: 89.1 µM [inhibitor, single point]
34 | Cc1nc(-c2cccc(Cl)c2)n(CC(=O)NC(C)CCc2ccccc2)c(=O)c1CCO (stereo unspecified) | inconclusive: 50.1 µM [inhibitor, partial curve, poor fit]
35 | COc1cccc(CC(=O)N2CCN(c3cc(-c4ccc(Cl)cc4)[nH]n3)CC2)c1 | inconclusive: 10 µM [inhibitor, full curve, poor fit]
36 | COCc1cc(C[C@@H]2C[C@H](NC(=O)COc3ccccc3)C2(C)C)no1 | inconclusive: 89.1 µM [inhibitor, single point]
37 | COc1ccccc1C(=O)NC1CCN(c2cc(-c3ccc(F)cc3)[nH]n2)C1 (stereo unspecified) | inconclusive: 70.8 µM [inhibitor, single point]
38 | Cc1ccccc1N1Cc2c(NCC3CCCCCC3)ncnc2N(C)CC1=O | inconclusive: 44.7 µM [inhibitor, partial curve, poor fit]
39 | Cc1noc(C)c1-c1cc2c(cc(-c3ccccc3)n2C)c(N(C)C)n1 | inconclusive: 22.4 µM [inhibitor, full curve, poor fit]
40 | CC(C)c1nc(-c2ccc(OC3CCN(C(=O)Cc4ccccc4F)C3)cc2)no1 (stereo unspecified) | inconclusive: 44.7 µM [inhibitor, partial curve, poor fit]
41 | CCC(C)NC(=O)C1CCCN1c1nccc(Nc2ccccc2F)n1 (stereo unspecified) | inactive
42 | O=C(NCc1cc(F)cc(F)c1)[C@H]1CN(Cc2ccccc2)C[C@H]1C(=O)O | inconclusive: 50.1 µM [inhibitor, partial curve, poor fit]

Row | SMILES | Potency
43 | O=C1c2c(nc(COc3ccccc3)n2Cc2ccccc2)NCCN1Cc1ccccc1F | inconclusive: 50.1 µM [inhibitor, partial curve, poor fit]
44 | CN1CCC(Cn2ccc3c(N4CCOCC4)nc(-c4cccc5[nH]ncc45)cc32)CC1 | active: 44.7 µM
45 | Cc1ccc(Cn2cc(-c3ccncc3)cc2C(=O)NC2CC2)cc1 | inconclusive: 44.7 µM [inhibitor, partial curve, poor fit]
46 | O=C(CNC(=O)c1cccc(-c2ccsc2)c1)NC1CCC1 | inactive
47 | CC(C)(C)C(=O)N1CCCC1C(=O)N1CCC(c2nc3ccncc3[nH]2)CC1 (stereo unspecified) | inactive
48 | Cc1ccccc1NC(=O)COc1ccc(-c2nnc3n2CCCC3)cc1 | inactive
49 | CN(Cc1ccc(Oc2ncccn2)cc1)CC1CCN(CCc2ccc(F)cc2)CC1 | active: 50.1 µM
50 | Cc1nnc2ccc(N3CCCN(C(=O)c4ccccc4Cl)CC3)nn12 | inactive
51 | O=C(NCCc1ccc(Cl)cc1)C1CCCN1C(=O)c1cccc(-c2cccnc2)c1 (stereo unspecified) | inconclusive: 70.8 µM [inhibitor, partial curve, poor fit]
52 | CN(C)c1cccc(C(=O)N2CCC3(CC2)N=C(c2cccc(Br)c2)NO3)c1 | inconclusive: 70.8 µM [inhibitor, single point]
53 | CSc1ccc(-c2cccc(CN3CCC(N[S+](=O)([O-])c4cccs4)CC3)c2)cc1 | active: 12.6 µM
54 | O=C(C1CCN(c2nc(-c3ccccc3)nc3c2CCC3)CC1)N1CCNCC1 | inconclusive: 39.8 µM [inhibitor, full curve, poor fit]
55 | COc1ccc(NC(=O)c2cn3cc(-c4ccccc4)sc3n2)cc1 | inactive
56 | Cc1cc2c(c(=O)n(-c3ccc(F)cc3)c(=O)n2CC(=O)Nc2ccc3c(c2)OCO3)n1C | inconclusive: 70.8 µM [inhibitor, single point]
57 | CNC(=O)[C@@H](CC(C)C)N1CCC[C@H]1C(=O)N1CCN(C)CC1 | inactive
58 | Cc1noc(C)c1-c1cc(-c2ccccc2Oc2ccccc2)cn2cncc12 | inconclusive: 56.2 µM [inhibitor, partial curve, poor fit]
59 | O=C(C1CCCN(Cc2cccc(-c3ccc(F)cc3F)c2)C1)N1CCC(Cc2ccccc2)CC1 (stereo unspecified) | inconclusive: 50.1 µM [inhibitor, partial curve, poor fit]
60 | Cc1ccc(NC(=O)N2CCCC(Cn3c(C)cnc3C3CC3)C2)cc1C (stereo unspecified) | inconclusive: 15.8 µM [inhibitor, full curve, poor fit]
61 | O=C1c2ccccc2CN1C1CCN(Cc2ccc(C(F)(F)F)cc2)CC1 | inconclusive: 44.7 µM [inhibitor, partial curve, poor fit]
